Values marked as one replicate rest on one cluster of the flow cell; about a third of the high ones do not repeat.
System: ATP
Assay: switch fluorescence ratio, 500 uM ATP over buffer (Cy3 cluster intensity, sum of 5 cycles each) (fold (ratio)); higher = stronger signal-on switching upon ATP binding; sequences stand for … in TCGTCGGCAGCGTCAGATGTGTATAAGAGACAGTTTTTTTTTTTTTTTTTTTTTTTTT…TC
Settings: aptamer strand: ATP DNA aptamer (quencher-CACCTGGGGGAGTATTGCGGAGGAAGG + anchor), 100 nM annealed; ATP concentration: 500 uM; one replicate
Method in brief: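 The fluorescence ratio divides summed target-cycle Cy3 intensity by summed buffer-cycle Cy3 intensity for each cluster and is averaged per switch-domain sequence. Cy3-labelled switching-strand clusters on a modified Illumina MiSeq flow-cell were annealed to 100 nM quencher-labelled ATP aptamer, then imaged in selection buffer and again after 15 min with 500 uM ATP at 22 °C. Five such cycles were run, with NaOH stripping and re-annealing between them, and clusters outside 100-1000 RFU were excluded.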
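Further: ATP exposure 15 min at 22 °C before imaging.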

Sequence	switch fluorescence ratio
TGAATGCCTA	0.952
TATTCTTGCA	1.02
CGTGAGTTAT	1.02
TAAGGGTCGG	1.05
TTAATTAGAT	1.02
ACTACCGGGG	1.6
TTGGTACCAG	1.04
AGATACATAG	1.04
AGTTGATTCA	0.996
CAACTGTTCC	1.2
TAGATCAGAC	1.01
CGAGGCTTTT	1.02
AACGTTCTGG	0.977
TGCGAGAG	1.01
CTAGTTCTCG	1.01
CCAGCGGGGG	0.989
TAAGTGACGT	0.977
TATCATTCTG	1.02
ATTCCTGTTA	0.986
TCGCGACATA	1.03
GGGCCTGTCT	1.03
TTGGTGATGG	1.03
TAGGCCAATG	1.01
GGGTTCTTCT	1.06
AGTCGCAGCG	0.957
CCGTCCGTGT	1.15

Sequence	switch fluorescence ratio
GCCCTTAGAA	0.983
CGGGTAGTGT	1.04
TCCGGTACAT	1.09
GACCGGTGGC	1.03
GCTCGATCAG	1.03
ATTATAATAC	1.13
AAGACTAACC	1.07
TGGGGCGGCC	0.99
TGTTAGAAAG	0.986
ATTGTAATAA	0.971
GTGGTAAGAG	1
AGGTCGTATG	1.01
GGGTCGTGCA	0.991
TTGATGTCGA	1.03
GATCCGTGGT	1.01
CGCTGGAGTT	1.07
CATCCTAGCG	1.09
AATTTGCTGG	1.03
TAAGGGCTTA	0.967
TAACAGGAGA	1.02
TCTACCCATA	1.06
GACCACGGGA	0.991
AAAATTCTG	1.09
GCAGGAGTGT	0.951
GGGACTGGCC	0.928
GGTCAGTGCC	0.98

Sequence	switch fluorescence ratio
ACCGGGTTTC	1.03
TATTGCAGGC	1.04
AGCGGTTTAG	1.03
GAGCATGCTT	0.986
ACGAGCTACT	2.09
GGGGATAGTT	0.948
CTAGATTTCT	1.04
AATGTCGA	0.981
AACAGGATTA	1.01
CTTGACTACG	1.06
GCGTCGTCAG	1.04
ACCGACCTG	1.13
AACACTTTGT	1
CGGTAGAGCA	1.04
AGCGGAGCTA	1
ACGCAGAAT	1.19
TAGCCTTAAC	1.06
AGGCTGGGCT	0.964
TTCGTTTGCC	1.01
ATAATAAAGT	0.961
TGTACCAGAA	1
AGCAATGTGG	1.2
AAAGGGGAA	0.974
TGAGGCATCC	1.03
CTGATGTCCT	0.98
GTGGTACCAT	0.997

Sequence	switch fluorescence ratio
TTTACGCCCT	1.11
AAATATAAAG	1.02
TGTCCGGTTG	1.28
CAGGTCATAA	0.99
TGGGGAGAGT	0.998
GCATGGGCTT	0.989
GTTCTAGCGG	0.961
TACGGGGAAA	0.98
GTGGACAAAG	0.944
ACAAGACCTC	0.974
CTAACATCTA	1.01
CCCATGGGCC	0.951
TTCCACAAAC	1.22
AAAAGCATAG	1.01
ATATAACTAA	0.976
GCTTTTACTC	1.32
CAAAGGCCGT	0.908
GATTGTAATG	0.977
TTGACGTTCT	1.04
GCTTAATCTC	1.06
AAGCCACACT	1.09
CCACGGGGGA	1.08
GAAAGTTGAT	0.972
AGACAGGATA	0.999
AAACCAAGTG	1.04
CGCCGCGTCG	1.11

Sequence	switch fluorescence ratio
CTGTGTAACC	0.97
CTGAATACAG	1.01
GCGAAAATAT	0.976
CTTGATGCG	0.965
ACGTACTTTT	1.19
TAAAATTCCT	1.12
TCCTGGGACG	1.07
CGCGGCTGAA	1.02
GAAAGTCACA	1.06
GTAGCCGCCC	1.1
GGGTCAAACA	1.02
GCGGCCTGG	1
GGCATAGGAG	1.04
CAGGTAGGT	0.994
TGATGTAGCC	0.963
TTGGTTTAG	0.979
ATTAATTCAG	0.952
GGAGGGTATG	1.02
GGACTCCCAA	1.88
CCACCAGTGG	1.68
CAGTCATCTA	1
GATTAGACCC	0.973
TGCGCATATA	1.23
GACGGTTTAA	1.02
GGACAAAAAG	0.982
TATCCGCGGC	1.23

Sequence	switch fluorescence ratio
ACCGCATGTT	1.5
AGCTCGCACA	1.3
CAATCGTTGG	0.987
CAACCGGCAC	1.79
CTTGATAGAG	1.02
TGATCAACCG	1.06
TGCCGGATAT	1.04
CGGGGCCCAG	1
TAATGATGGT	1.06
CCGCAGGGGA	3.89
CGGTTCATTC	1.06
TGCGCATCCC	1.2
ATTGATTATT	0.987
ATAAGGATGC	1
GCCGTGATTG	0.991
ATTTAAATGC	1.04
AGAGGTAACA	0.973
GCCCGAATCC	1.08
TGAGGCGGG	1.02
CGCAGGGAA	1.02
GACAGACTGG	0.989
TAGTGCGGGC	1.01
AGGATGCAGC	0.996
